Read-outs that look alike come from different tables or passages of the source.
How the values were obtained:
[1] = test system: HAP1 MTAP-deleted cell line; assay: SDMA in-cell western assay, HAP1 MTAP-deleted; conditions: for IC50 / IC90: Homo sapiens; for Hap1 MTAP intact/deleted ratio: IC50 ratio between HAP1 MTAP-intact and HAP1 MTAP-deleted cell line
[2] = test system: HAP1 MTAP-intact cell line; assay: SDMA in-cell western assay, HAP1 MTAP-intact; conditions: Homo sapiens
MTAP-deleted cell line = assay: viability assay for the MTAP-deleted cell line; assay type: cell-based; conditions: Homo sapiens, HAP1, viability assay
[3] = HAP1, read-out: Hap1 MTAP deleted IC50, SDMA in-cell western assay, HAP1 MTAP-deleted cell line
[4] = HAP1, read-out: Hap1 MTAP deleted IC90, SDMA in-cell western assay, HAP1 MTAP-deleted cell line
[5] = HAP1, read-out: Hap1 MTAP intact IC50, SDMA in-cell western assay, HAP1 MTAP-intact cell line
[6] = HAP1, read-out: Hap1 MTAP deleted IC50, SDMA in-cell western, HAP1 MTAP-deleted cell line
[7] = HAP1, read-out: Hap1 MTAP deleted IC90, SDMA in-cell western, HAP1 MTAP-deleted cell line
[8] = HAP1, read-out: Hap1 MTAP intact IC50, SDMA in-cell western, HAP1 MTAP-intact cell line

Row | Compound | IC50 [1, 3] [nM] | IC90 [1, 4] [nM] | IC50 [2, 5] [nM] | IC50 [1, 6] [nM] | IC90 [1, 7] [nM] | IC50 [2, 8] [nM] | Hap1 MTAP intact/deleted ratio ([1]; SDMA in-cell western assay) | IC50 (MTAP-deleted cell line) [nM] | Hap1 MTAP intact/deleted ratio ([1]; SDMA in-cell western)
1 | C[C@H]1CC[C@H](c2cccc(CCN(C)C)c2)N(C(=O)C(=O)Nc2cnc(N)c3cn[nH]c23)C1 (racemic) [Compound 230, N-(4-Amino-1H-pyrazolo[4,3-c]pyridin-7-yl)-2-oxo-2-[rac-(2R,5S)-2-[3-[2-(dimethylamino)ethyl]phenyl]-5-methyl-1-piperidyl]acetamide] | 5 to 50 | < 75 | > 50 |  |  |  | C (“C” indicates an IC50 ratio of less than 15 fold) | < 100 | 
2 | C[C@@H]1CC[C@@H](c2cnco2)N(C(=O)C(=O)Nc2cnc(N)c3cn[nH]c23)C1 (racemic) [Compound 239, N-(4-Amino-1H-pyrazolo[4,3-c]pyridin-7-yl)-2-oxo-2-[rac-(2S,5R)-5-methyl-2-oxazol-5-yl-1-piperidyl]acetamide] | 5 to 50 | < 75 | > 50 |  |  |  | C (“C” indicates an IC50 ratio of less than 15 fold) | < 100 | 
3 | C[C@@H]1CC[C@@H](C2CCC2)N(C(=O)C(=O)Nc2cnc(N)c3cn[nH]c23)C1 (racemic) [Compound 249, N-(4-Amino-1H-pyrazolo[4,3-c]pyridin-7-yl)-2-oxo-2-[rac-(2S,5R)-2-cyclobutyl-5-methyl-1-piperidyl]acetamide] | < 5 | < 75 | > 50 |  |  |  | A (“A” indicates an IC50 ratio greater than or equal to 30 fold) | < 100 | 
4 | C[C@H]1CC[C@H](c2cccc3c2cnn3C)N(C(=O)C(=O)Nc2cnc(N)c3cn[nH]c23)C1 (racemic) [Compound 257, N-(4-Amino-2H-pyrazolo[4,3-c]pyridin-7-yl)-2-oxo-2-[rac-(5S)-5-methyl-2-(1-methylindazol-4-yl)-1-piperidyl]acetamide] | < 5 | < 75 | 5 to 50 |  |  |  | C (“C” indicates an IC50 ratio of less than 15 fold) | < 100 | 
5 | Cc1cc([C@H]2CC[C@H](C)CN2C(=O)C(=O)Nc2cnc(N)c3cn[nH]c23)n(C)n1 (racemic) [Compound 259, N-(4-Amino-1H-pyrazolo[4,3-c]pyridin-7-yl)-2-oxo-2-[rac-(2R,5S)-2-(2,5-dimethylpyrazol-3-yl)-5-methyl-1-piperidyl]acetamide] | < 5 | 75 to 125 | > 50 |  |  |  | A (“A” indicates an IC50 ratio greater than or equal to 30 fold) | 100 to 1000 | 
6 | C[C@H]1CC[C@H](c2cncc(C(F)(F)F)c2)N(C(=O)C(=O)Nc2cnc(N)c3cn[nH]c23)C1 (racemic) [Compound 260, N-(4-Amino-1H-pyrazolo[4,3-c]pyridin-7-yl)-2-oxo-2-[rac-(2R,5S)-5-methyl-2-[5-(trifluoromethyl)-3-pyridyl]-1-piperidyl]acetamide] | < 5 | < 75 | 5 to 50 |  |  |  | B (“B” indicates an IC50 ratio greater than or equal to 15 fold but lower than 30 fold) | < 100 | 
7 | C[C@H]1CC[C@H](c2ccccc2)N(C(=O)C(=O)Nc2cnc(N)c3c2CO[C@@H]3C)C1 (relative stereo) [Compound 192, 2-oxo-N-[rel-(3R)-4-amino-3-methyl-1,3-dihydrofuro[3,4-c]pyridin-7-yl]-2-[rac-(2R,5S)-5-methyl-2-phenyl-1-piperidyl]acetamide] |  |  |  | 5 to 50 | < 75 | > 50 |  | < 100 | A (“A” indicates an IC50 ratio greater than or equal to 30 fold)

Continued, in another order:

Row | IC50 [1, 3] [nM] | IC90 [1, 4] [nM] | IC50 [2, 5] [nM] | IC50 [1, 6] [nM] | IC90 [1, 7] [nM] | IC50 [2, 8] [nM] | Compound | Hap1 MTAP intact/deleted ratio ([1]; SDMA in-cell western assay) | IC50 (MTAP-deleted cell line) [nM] | Hap1 MTAP intact/deleted ratio ([1]; SDMA in-cell western)
8 | < 5 | < 75 | 5 to 50 |  |  |  | CCn1cc2cc([C@H]3CC[C@H](C)CN3C(=O)C(=O)Nc3cnc(N)c4cn[nH]c34)ccc2n1 (racemic) [Compound 262, N-(4-Amino-1H-pyrazolo[4,3-c]pyridin-7-yl)-2-oxo-2-[rac-(2R,5S)-2-(2-ethylindazol-5-yl)-5-methyl-1-piperidyl]acetamide] | C (“C” indicates an IC50 ratio of less than 15 fold) | < 100 | 
9 | < 5 | < 75 | 5 to 50 |  |  |  | CC(C)n1ncc2cc([C@H]3CC[C@H](C)CN3C(=O)C(=O)Nc3cnc(N)c4cn[nH]c34)ccc21 (racemic) [Compound 266, N-(4-Amino-1H-pyrazolo[4,3-c]pyridin-7-yl)-2-oxo-2-[rac-(2R,5S)-2-(1-isopropylindazol-5-yl)-5-methyl-1-piperidyl]acetamide] | C (“C” indicates an IC50 ratio of less than 15 fold) | < 100 | 
10 | < 5 | < 75 | < 5 |  |  |  | C[C@H]1CC[C@H](c2ccc3cn(C4CC4)nc3c2)N(C(=O)C(=O)Nc2cnc(N)c3cn[nH]c23)C1 (racemic) [Compound 284, N-(4-Amino-1H-pyrazolo[4,3-c]pyridin-7-yl)-2-oxo-2-[rac-(2R,5S)-2-(2-cyclopropylindazol-6-yl)-5-methyl-1-piperidyl]acetamide] | C (“C” indicates an IC50 ratio of less than 15 fold) | < 100 | 
11 |  |  |  | < 5 | < 75 | > 50 | C[C@H]1CC[C@H](c2ccc3sc([C@@H]4CCCN(C)C4)nc3c2)N(C(=O)C(=O)Nc2cncc3c(N)nccc23)C1 (relative stereo) [Compound 8, N-(8-amino-2,7-naphthyridin-4-yl)-2-oxo-2-[(2R,5S)-5-methyl-2-[2-[rel-(3R)-1-methyl-3-piperidyl]-1,3-benzothiazol-5-yl]-1-piperidyl]acetamide] |  | < 100 | A (“A” indicates an IC50 ratio greater than or equal to 30 fold)
12 |  |  |  | < 5 | < 75 | 5 to 50 | C[C@H]1CC[C@H](c2ccc3sc([C@H]4CCN(C)C[C@@H]4C)nc3c2)N(C(=O)C(=O)Nc2cncc3cn[nH]c23)C1 (relative stereo) [Compound 14, 2-oxo-N-(1H-pyrazolo[4,3-c]pyridin-7-yl)-2-[(2R,5S)-5-methyl-2-[2-[rel-(3R,4S)-1,3-dimethyl-4-piperidyl]-1,3-benzothiazol-5-yl]-1-piperidyl]acetamide] |  | < 100 | B (“B” indicates an IC50 ratio greater than or equal to 15 fold but lower than 30 fold)
13 |  |  |  | < 5 | < 75 | > 50 | C[C@H]1CC[C@H](c2ccc3sc([C@@H]4CCN(C)C[C@H]4C)nc3c2)N(C(=O)C(=O)Nc2ccn3ccnc3c2)C1 (relative stereo) [Compound 23, N-imidazo[1,2-a]pyridin-7-yl-2-oxo-2-[(2R,5S)-5-methyl-2-[2-[rel-(3S,4R)-1,3-dimethyl-4-piperidyl]-1,3-benzothiazol-5-yl]-1-piperidyl]acetamide] |  | < 100 | A (“A” indicates an IC50 ratio greater than or equal to 30 fold)
14 |  |  |  | < 5 | < 75 | 5 to 50 | C[C@H]1CC[C@H](c2ccc3sc([C@H]4CCN(C)C[C@H]4C)nc3c2)N(C(=O)C(=O)Nc2cncc3cn[nH]c23)C1 (relative stereo) [Compound 95, 2-oxo-N-(1H-pyrazolo[4,3-c]pyridin-7-yl)-2-[(2R,5S)-5-methyl-2-[2-[rel-(3S,4S)-1,3-dimethyl-4-piperidyl]-1,3-benzothiazol-5-yl]-1-piperidyl]acetamide] |  | < 100 | B (“B” indicates an IC50 ratio greater than or equal to 15 fold but lower than 30 fold)
15 |  |  |  | < 5 | < 75 | 5 to 50 | C[C@H]1CC[C@H](c2ccc3sc([C@@H]4CN5CC[C@@H]4C5)nc3c2)N(C(=O)C(=O)Nc2cncc3cn[nH]c23)C1 (relative stereo) [Compound 134, 2-((2R,5S)-2-(2-(1-azabicyclo[2.2.1]heptan-3-yl)benzo[d]thiazol-5-yl)-5-methylpiperidin-1-yl)-2-oxo-N-(1H-pyrazolo[4,3-c]pyridin-7-yl)acetamide] |  | < 100 | C (“C” indicates an IC50 ratio of less than 15 fold)
16 |  |  |  | > 50 | > 125 | > 50 | C[C@@H]1CC[C@@H](c2ccc3sc(CCN(C)C)nc3c2)N(C(=O)C(=O)Nc2ccn3ccnc3c2)C1 (single isomer, unassigned) [Compound 27, 2-(2-(2-(2-(dimethylamino)ethyl)benzo[d]thiazol-5-yl)-5-methylpiperidin-1-yl)-N-(imidazo[1,2-a]pyridin-7-yl)-2-oxoacetamide] |  | > 1000 | C (“C” indicates an IC50 ratio of less than 15 fold)
17 |  |  |  | < 5 | < 75 | > 50 | C[C@H]1CC[C@H](c2ccc3sc([C@@H]4CCN(C)C(C)(C)C4)nc3c2)N(C(=O)C(=O)Nc2cncc3c(N)nccc23)C1 (single isomer, unassigned) [Compound 68] |  | < 100 | A (“A” indicates an IC50 ratio greater than or equal to 30 fold)
18 |  |  |  | < 5 | 75 to 125 | > 50 | C[C@H]1CC[C@H](c2ccc3sc(C4CCOCC4)nc3c2)N(C(=O)C(=O)Nc2cncc3cn[nH]c23)C1 (single isomer, unassigned) [Compound 97] |  | < 100 | A (“A” indicates an IC50 ratio greater than or equal to 30 fold)
